Test results reported in the RNAGym collection of RNA variant scans (doi:10.1093/nar/gkz1192).
Read counts are not given, so values of variants with three or more changes are uncertain.

B1: CPEB3 Ribozyme (parent)
chain: UAACAGGGGGCCACAGCAGAAGCGUUCACGUCGCAGCCCCUGUCAGAUUCUGGUGAAUCUGCGAAUUCUGCUGUAUAUCUC

Variants of: B1
Experiment: self-cleavage, relative activity (ratio to wild type); higher = more cleavage; in vitro, sequencing
Summary of the method: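 After error-prone PCR and barcoding, CPEB3 ribozyme mutant libraries were transcribed with T7 RNA polymerase at 37°C for 5 hours, then given 15 min with DNase I before an EDTA stop, and they cleaved during both steps. Reverse transcription with template switching preceded Illumina sequencing. Relative activity divides a variant's cleaved/total read fraction by the unmutated ribozyme's. At least 5 reads were required per variant, and three batches were averaged.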

Variant	self-cleavage
UGGCAGGGGGCCACAGCUGAAGCGUUCACGUCGCAGCCCCUGUCAGAUUCUGGUCAAUCUGCGAAUUCUGCUGUAUAUCUC	0.27
GAACAGGGGGCAACAGCAGAAGCGUUCAUGUCGUAGCCCCUGUCAGAUUCUGGUGAAUCUGCGAAUUCUGCUGUAUAUCUC	0.08
UCACUGGGGGCCACAGGAGAAACGUUCACGUCGCUGCCCCUGUCAGAUUAUGGUGAAUCUGCGAAUUCUGCUGUAUAUCUC	0.2
UCACAGGGGGCCACAGCAGAAGCGGUCACGUCGCAGCCCCAGUCAGAUUCUGGUGAAUCUGCGAACUCUGCAGUAUAUCUC	0.06
GAACGGGGGGCCACAGCAGAAGCGUCCACGUCGCAGCCCCUGUCAGAUUCUGUUGAAUCUGCGAAUUCUGCUGUAUGUCUC	0.49
UCACAGGGGGCCGCAGCAGAGGCGUUCACGUCGCAGCCCCUGUCAGAUUCUGGUGAAUCUGCGAAUUCUGCUGUAUAUCUC	0.68
UGGCAGGGGGCCACAGCAGAAGCGUUCACGUCGCAGCCCCUGUCAGAUUCUGGUGAAUCUGCGAGUUCUGCUGUAUAUCUC	0.77
UGGCAGGGGGCCACAGCAGAAGCGUUCAGGUCGUAGCCCCAGUCAGAUUCUGGUGAAUCUGCAAACUCUGCUGUAUAUCUC	0.09
GAACAGGGGGCCACAGCAGAAGCGUUCACGUCGCAGCUCCUGCCAGAUCCUGGCGAAUCAGCGAAUUCAGCUGUAUAUCUC	0.05
UCACAGGGGGCCACUGCAGAAGCGUUCACGUCGCAGCCCCUGUCAGGUUCUGGUGAAUCUGCGAAUUCUGCUGUAUAUAUC	0.74
GGACAGGGGGCCACAGCAGAAGCGUUCAGGUCGCAGCCCCUGUCAGAUUCUGGUGAAUCUGCGAAUUCUGCAGAAUAUCUC	0.11
UCACAGGGGGCCACAGCAGAAGCGUUCACGUCGCAGCCCCCGUCAGAUUCUGGUGAAUCUGCGAAUUCUGCUGUAUACCUC	1.06
GAACAGGGGGCCACAGCAGAAGCGUUCACCUCGCAGCCCCUGUCAGAUUCUGGUGAACCUGCGGAUUCUGCUGUAUAUCUC	0.18
UCACAGGGGGCCACAGCAGGAGCGUUCACGUCGCAGCCCCUGACAGGUUCUGGUGUAUCUGCGAAUUCUGCAGUAUAUCUC	0.08
UCACAGGAGGCCACAGCAGAAGCGUUCACGUCGCAGCCCCUGUCAGAUUCUGGUGAAUCUGCGAAUUCUGCCGUAUAUCUC	0.4
GAACGGGGGGCCACAGCAGUAGCGCUCACGUCGCAGCCCCUGUCAGGUUCUGGCGAAUCUGCGAAUUCUGCUGUAUAUCUC	0.11
GAACAGGGGGCCACAGCAGAAGCGUUCACGUCGCAGCCCCUGUCAGAUUCUGGUGAAUCUGCGAACUAUGCUGUAAAUCUC	0.14
GAACAGGUGGCCACAGCAGAAGCGUUCACGUCGCAGCCCCUGUCAGAAUCUGGUGAAUCUGCGAAUCCUGCUGUAUAUCUC	0.05
CAACAGGGGGCCACAGCAGAAGCGUUCACGUCGCAGCCCCUGUCAGACUCUGGUGAAUCUGCGAAUUCUGCAGUAUAUCUC	0.22
UCACAGGGGGCCACAGCAGAAGCGUUCACGUCGCAGCCCCUGUCAGAUUCUGGUGAAUCUGCGAAUUCCGCUGUAUAUCCC	0.42
UGGCAGGGGGCCACAGCAGAAGCGUUCACCUCGCAGCCCCUGACAGAUUCUGGUGAAUCUGCGAAUUCUGCUGUAUAUCUC	0.06
UGGCAGGGGGCCACAGCAGAAGGGUUCACGUCGCAGCCCCUGUCAGAUUCUGGUGAAUCCGCGAAUUCUGCUGUAUAUCAC	0.52
UGGCAGGGGGCCGCAGCAGGAGCGUUCACGUCGCAACCCCUGUCAGAUUCUGGUGAAUCUGCGAGUUCUGCUGUAUAUCUC	0.06

Variant	self-cleavage
UCACAGGGGGCCACAGCAGAAGCGUCCACGUCGCAGCCCCUGUCAGAUUCUGGUGAAUCUGCGGAUUCUGCUGUAUAUCUC	0.35
CAACAGGGGGCCACAGCAGAAGCGUUCACGUCGCAGCCCCUGUCAGAUUCAGGUGAAUCUGCGAUUUCUGCUGUAUAUCUC	0.18
UCACAGGGGGCCACAGCAGAAGCGUUCACGUCGCAGCCCCUGUCUGAUACUGUUGAAUCUGCGAAUACUGCUGUAUACCUC	0.1
UGGCAGGGGGCCGCAGCAGUAGCGUUCACGUCGCAGCCCCUGUCAGAUUCUGGGGAAUCUGCAAAUUCUGCUGUAUAUCUC	0.69
GAACGGGGGGCCACAGCAAAAGCGUUCACGUCGCAGCCCCUGUCAGAUUCUGGUGAAUCUGCGAAUUCUGCUGUAUAUCCC	0.34
GAACAGGGGACCACAGCGGAAGCGUUCACGUCGCAGCCCCCGUCAGAUUCUGGUGAAUCUGCGAAUCCUGCUGUAUAUCUC	0.06
GAACAGGGGGCCACAGCAGAAGCGUUCACGUCGCAGCCCCUGUCGGUUUCUGGUGAAUCUGCGAAUUCUGCUGUAUAUCUC	0.4
CAACAGGGGGCCACAGCAGAAGCGUUCACGUCGCAGCCCCUGUCAGAUUCUGGUGAAUCAGCGAAUUCUGCUGAACAUCUC	0.72
UCACAAGGGGCCGCAGCAGCAGCGUUCACGUCGCAGCCCCUGUCAGAUUCUGGUGAAUCUGCGUACUCUGCUGUAUAUCUC	0.05
UCACAGGGGGCCACAGCAGAAGAGUUCACGUCGCAGCCCCUGUCAGAUUCUGGUGAAUCUGCGCAUUCUGCUGUAUAUCUC	0.06
UCACAGGGGGCCACAGCAGAAGAGUUCACGUCGCAGCCCCUGUCAGAUUCUGGUGAAUCUGCGUAUUCUGCUGUAUAUCUC	0.16
UGGCUGGGGGCCGCAGCAGAAGCGUCCACGUCGCAGCCCCUGUCAGAGUCUGGUGAAUCUGCGAAUUCUGCUGUAUAUCUC	0.21
CAACAGGGGGCCACAGCAGAAGCGUUCACGUCGCAGCCCCUGUCAGAUUCCGGUGAACCUGCGGAUUCUGCUGUAUACCUC	0.11
CAACAGGGGGCCACAGCAGAAGCGUUCACGUCGCAGCCCCUGUCAGAUUCUGGUGAAUCCACGAAUUCUGCUGUAUAUCUC	0.32
UCACCGGGGGCCACAGCAGAAGCGUUCACGUCGCAGCCCCUGUCAGAUUCUGGUGAAUCCGCGAAUUCUGCUGUAUAUCUC	0.73
CAACAGGGGGCCACAGCAGAAGCGUUCACGUCGCAGCCCCUGUCAGAUACUGGUGAAUCUGCGGAUUCUGAUGUCUAUCUC	0.23
GAAGGGGGGGCCUCAGCAGAAGCGUUCACGUCGCAGCCCCUGUCAGAUUCUGGCGAAUCUGCGAAUUCUGCUGUAUAUCUC	1.01
UCACAGGGGGCCACAGCAGAAGCGUUCACGUCGCAGCCCCUGUCAGAUUCUGGUGAAUCUGCGGAUUCUGCUGUACAUCUC	0.64
UCACAGGGGGCCACUGCAGAAGCGUUCACGUCGCAGCCCCUGCCAGAUUCUGGUGAAUCUGCGAAUUCUGCUGUAUACCUC	0.25
UGGCAGGGGGCCACAGCAGAAGCGUUCUCGUCGCAGCCCCUGUCAGAUUCUGGCGAAUCUGCGAAUUCUGCUGUAUAUCUC	0.81
CAACAGGGGGCCACAGCAGAAGCGUUCACGUCGCAGCCCCUGUCAGAUUCAGGUGAAUCUGCGAAUUCGGCUGUAUAUCUC	0.75
UCACAGGGGGCCACAGCAGAAGCGUUCACGUCGCAGCCCCUGUCAGAUUCUGGUGAAUCUGCGAGUUCCGCUGUAUAUCUC	0.32
CAACAGGGGGCCACAGCAGAAGCGUUCACGUCGCAGCCCCUGUCAGAUUCUGGUGAAUCUGCGAAACCUGCUGUAUAUCUC	0.2

Variant	self-cleavage
UGGCAGGGGGCCACAGCAGAAGCGAUCACGCCGCAGCCCCUGUCAGAUCCUGGUGAAUCUGCGAAUUCUGCUGUAUAUCUC	0.45
CAACAGGGGGCCACAGCAGAAGCGUUCACGUCGCAGCCCCUGUCAGAUUCUGGCGAAUCUGCGAGUGCUGUUGUAUAUCUC	0.25
CAACAGGGGGCCACAGCAGAAGCGUUCACGUCGCAGCCCCUGUCAGAUACUGGUGAAUCUGCGAACUCUGCUGUAUAUCUC	0.17
UCACAGGGGGCCACAGCAGAAGCGUUCACGACGCAGCCCCUGUCAGAUUCUGGUGAAUCUGCGAAUUCUGCUGUAUGUCUC	0.56
GAACAAGGGGCGACAGCAGUAGCGUUCACGUCGCAGCCCCUGUCAGAUUCUGGUGAAUCUGCGAAUUCUGCUGUAUACCUC	0.04
UCACGGGGGGCCACAGCAGAAGCGUUCGCGUCGCAGCCCCUGUCAGAGUCUGGUGAAUCUGCGAAUUCUGCUGUAUAUCUC	0.12
UGGCAGGGGGCCACAGCGGAAGCGUCCACGUCGCAGCCCCUGUCAGAUUCUGGUGAAUCUGCGGAUUCUGCUGUAUAUCUC	0.62
UCACAGGGGACCACAGCAGAAGCGUUCACGUCGCAGCCCCUGUCAGAUUCUGGUGAAUCUGCGAACUCUGCUGUAUACCUC	0.05
UCACAGGGGGCCUCAGCAGAGGCGUUCACGUCGCUGCCCCUGUCGGAUUCUGGUGAAUCUGCGAAUUCUGCUGUAUAUCCC	0.49
GAACAGGGGGCCACAGCUGAAGCGUUCAUGUCGCAGCCCCUGUCAGAUCCUGGUGAAUCUGCGAAUUCUGCUGUAUAUCUC	0.24
UCACAGGGGGCCACAGCAGAAGCGUUCACGUCGCAGCCCCUGUCAGGUUCUGGUGAAUCCGCGGAUUCUGCUGAAUAUCUC	0.21
CAACAGGGGGCCACAGCAGAAGCGUUCACGUCGCAGCCCCUGUCAGAUUCCGGUGAAUUUGCGAAUUCUGCUGUAUAUCUC	0.39
CAACAGGGGGCCACAGCAGAAGCGUUCACGUCGCAGCCCCUGUCAGACUCUGGUGAAUCUGCGAAUACUGCCGUAUAUCUC	0.21
UCACAGGGGGCCACAGCAGAAGUGUUCACGUCGCAGCCCCUGUCAGAUGCUGGUGGAUCUGCGUAUUCUGCUGUAUAUCUC	0.03
CAACAGGGGGCCACAGCAGAAGCGUUCACGUCGCAGCCCCUGUCAGAUUCUGGUGAAACUGCGAAUUCGGCUGCAUAUCUC	0.26
CAACAGGGGGCCACAGCAGAAGCGUUCACGUCGCAGCCCCUGUCAGAUUCUGGUGAACCUCCAGAUUCAUCUGUAUAUCUC	0.23
UCACAGGGGGCCACAGCAGAAGCGUUCACGUCGCAGCGCCUGUCAGAUUCUGGUGAAUCUGCGAAUUCUGCUGCAUAUCUC	0.43
UCACAGGGGGCCGCAGCGGAAGCGUUCACGUUGCAGCCCCUGUCAGAGUCUGGUGAAUCUGCGAAUUCUGCUGUAUAUCUC	0.34
GAACAGGGGGCCACAGCAGAAGCGUUCACGUCGCAGCCCUUGUCCGAUUCUGGUGAAUCUGCGAAUUCUGCCGUAUAUCUC	0.44
CAACAGGGGGCCACAGCAGAAGCGUUCACGUCGCAGCCCCUGUCAGACUCUGGUGAAUCUGCGAAUUCCGCAGUAUAUCUC	0.14
GAACAGGGGGGCACAGCAGAAGCGUUCACGUCGCAGCCCCUGUCAGAUUCUGGUGAAUCUGCGAUUUCUGCCGUAUAUCUC	0.06
UCGCAGGGGGCCACAGCAGAAGUGUCCACGUCGCAGCCCCCGUCAGAUUCUGGUGAAUCCGCGAAUUCUGCUGUAUAUCUC	0.56
